Data as given in publication PMC7819943, “Rice protein-binding microarrays: a tool to detect cis-acting elements near promoter regions in rice”.
The other results are listed elsewhere or left out.

What follows are sequences tested against T1, OsWOX13 (Oryza sativa, UniProt Q5QMM3 1-267) (assay: protein-binding microarray (RPBM); PBS, 2% BSA, 51.3 ng/ul salmon testes DNA, 50 uM zinc acetate, 200 nM TF, 25 C, 1 h; high values mean tight binding). Details: protein: recombinant; tags: N-terminal polyhistidine and DsRed monomer fusion (pET32a); label: CyDye5-dUTP incorporated in the synthesized complementary strand; 3' TTTTT single-stranded linker to array surface; dsDNA, one strand shown.
T1 sequence: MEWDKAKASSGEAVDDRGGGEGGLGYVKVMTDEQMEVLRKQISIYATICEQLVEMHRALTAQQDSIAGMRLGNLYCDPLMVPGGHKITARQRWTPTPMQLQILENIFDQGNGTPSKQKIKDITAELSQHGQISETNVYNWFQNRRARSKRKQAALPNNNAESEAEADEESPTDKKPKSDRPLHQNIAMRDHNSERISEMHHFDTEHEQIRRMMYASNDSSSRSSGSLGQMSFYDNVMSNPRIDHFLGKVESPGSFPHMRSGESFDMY
Summary of the method: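 The binding signal is fluorescence intensity per array feature (arbitrary units). Readings came from an Axon 4000B scanner after a washed, 2% BSA-blocked, double-stranded custom Agilent array had been incubated for 1 h at 25 °C with 200 nM protein and 50 µM zinc acetate. The protein was a Ni–NTA-purified transcription factor fused N-terminally to polyhistidine and DsRed, expressed in E. coli BL21-CodonPlus.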

| Sequence | binding signal |
| --- | --- |
| AATAGATTAATATGATTGTTTTAAAGCAACTTTCCTATTGCGGAGTCACCTAGTGCAG | 43700 fluorescence intensity (a.u.) |
| TAATTAACCTCTACCGTAATTGGGTAACTTAATCACGACGCGGAGTCACCTAGTGCAG | 5120 fluorescence intensity (a.u.) |
| TTGACATCATCATTGACGTGATAGATATAGTATATTAGACCGGAGTCACCTAGTGCAG | 17000 fluorescence intensity (a.u.) |
| ATAAGGTGTACTTAATTTGTTCAATTGAAGAAAGACATGTCGGAGTCACCTAGTGCAG | 5090 fluorescence intensity (a.u.) |
| GTGCAGTCTTCCTCTCTTAATTACTCATCCTGTACGAGCTCGGAGTCACCTAGTGCAG | 4200 fluorescence intensity (a.u.) |
| ACGATTTTAATTGCATTCCTGCCTTCTTCGCCACATTATTCGGAGTCACCTAGTGCAG | 10400 fluorescence intensity (a.u.) |
| AAATTAGCAAATACTTAATTAATTATGCGCTAATGAACCGCGGAGTCACCTAGTGCAG | 16800 fluorescence intensity (a.u.) |
| TCCAAATTTGTTTTGAACGGATAGTAGCATTATCATATTCCGGAGTCACCTAGTGCAG | 3750 fluorescence intensity (a.u.) |
| TGATTTGACTGATTTATCATCTGAAATATCTGAATGAATACGGAGTCACCTAGTGCAG | 27200 fluorescence intensity (a.u.) |
| ATCCGTTTGATTTTGAAATCATAATGACAATAAAGAAGGGCGGAGTCACCTAGTGCAG | 7230 fluorescence intensity (a.u.) |
| CGTGTGGATTAACTATAAATTTAGACACATATATGAAGCACGGAGTCACCTAGTGCAG | 6530 fluorescence intensity (a.u.) |
| TTGAATGGTAAATGATTGGTCGATCGCGCAATGTCGAAGACGGAGTCACCTAGTGCAG | 27400 fluorescence intensity (a.u.) |
| CCTAAATGTGTCTATTATGGTCAGACACTCTCTCACGGCACGGAGTCACCTAGTGCAG | 9270 fluorescence intensity (a.u.) |
| TTAATTACCCATGACAGTTTGCTTACTTAAAGCCTGCATGCGGAGTCACCTAGTGCAG | 13200 fluorescence intensity (a.u.) |
| TTTAATTAACTTTTATCCCCAATTATATCCCCTCCTTTTACGGAGTCACCTAGTGCAG | 22700 fluorescence intensity (a.u.) |
| ACTTTCGATGTACGCTCTGATTGATATTTCTCCAATATCTCGGAGTCACCTAGTGCAG | 19600 fluorescence intensity (a.u.) |
| CTAAACTCTAAATCATGTCATCGTAATTGGCCGGCGGAGGCGGAGTCACCTAGTGCAG | 41900 fluorescence intensity (a.u.) |
| TAAGCACGTAATTATTACAATGGGTCGTTTATTGACTATTCGGAGTCACCTAGTGCAG | 3480 fluorescence intensity (a.u.) |
| TTTAATTCTATCTAAACTTTTAATTTTAACGTGAGCTGAACGGAGTCACCTAGTGCAG | 5690 fluorescence intensity (a.u.) |
| GGTGGCTAGATAGACAGACATGTTGCCCATCAACTTAAGACGGAGTCACCTAGTGCAG | 4900 fluorescence intensity (a.u.) |
| TTTCTTGATTGTATGTTTGCTGCGTTAAGGGCTTCGGAGACGGAGTCACCTAGTGCAG | 30900 fluorescence intensity (a.u.) |

| Sequence | binding signal |
| --- | --- |
| ACCCTAACTGATCGATCCACCGCTAGTTACTGTAGTGGGACGGAGTCACCTAGTGCAG | 11600 fluorescence intensity (a.u.) |
| AAATTAACTTAATTAATAAGTTGAGCAGCCTGTAGGCCTTCGGAGTCACCTAGTGCAG | 17500 fluorescence intensity (a.u.) |
| TTAGCCTAATTAATCCATAATTAGCAAATGTTTATTGTAGCGGAGTCACCTAGTGCAG | 30600 fluorescence intensity (a.u.) |
| GGGAAAATTTAGAAGTCCTGATAGGTAAAGACTTTAAGTCCGGAGTCACCTAGTGCAG | 6480 fluorescence intensity (a.u.) |
| TAACAAAATTATTATATGATGATCAATTTGAGAACGAGAGCGGAGTCACCTAGTGCAG | 8570 fluorescence intensity (a.u.) |
| GGAAATTAAATTCGATAACTGTATCTCACGAGATAGGTAGCGGAGTCACCTAGTGCAG | 23400 fluorescence intensity (a.u.) |
| TTGAACAAATAATTACAGTAATGTGAAATTTACTCAATGGCGGAGTCACCTAGTGCAG | 8450 fluorescence intensity (a.u.) |
| TTGATTATTTGATCACACGAAAATAAATGCAAGCCCCATCCGGAGTCACCTAGTGCAG | 21900 fluorescence intensity (a.u.) |
| CTCAATTGGCCACAAATTATGAAATTGGTTAATGCACAACCGGAGTCACCTAGTGCAG | 30700 fluorescence intensity (a.u.) |
| TCCGTTCTAAATTAAATCAATCTAGAATAGAATAAGACATCGGAGTCACCTAGTGCAG | 14700 fluorescence intensity (a.u.) |
| ATCCAATATTACATACATAACTAATTATATGTTTGGATGTCGGAGTCACCTAGTGCAG | 4440 fluorescence intensity (a.u.) |
| AATTCGATTGGTATTCACAAATCACACATTCACGCTTGCTCGGAGTCACCTAGTGCAG | 8900 fluorescence intensity (a.u.) |
| GCTGACTGATGACGGCGACGTCGGGAGGATGGAGAACGACCGGAGTCACCTAGTGCAG | 20100 fluorescence intensity (a.u.) |
| ACTAAACTTTTAATTTTGGTGTGAACTAAACACAGCCTAACGGAGTCACCTAGTGCAG | 9440 fluorescence intensity (a.u.) |
| AGCATAGAGACAGAGATGATTATTGTATCGCTATCAGCACCGGAGTCACCTAGTGCAG | 4510 fluorescence intensity (a.u.) |
| AAGACAGAGTCAAATTAGCCACGTAGGTGCCACGTCAGCCCGGAGTCACCTAGTGCAG | 5730 fluorescence intensity (a.u.) |
| GTACTTAATGAATTATAACAAAATACGAGTCGTTCCGTTCCGGAGTCACCTAGTGCAG | 7360 fluorescence intensity (a.u.) |
| ATAAATAACTTTGATATAAATTGTTTGAATAAAACTAATGCGGAGTCACCTAGTGCAG | 14300 fluorescence intensity (a.u.) |
| ACAATAATTAATACTTCAATTAATCATACTCAAGGTACAACGGAGTCACCTAGTGCAG | 41200 fluorescence intensity (a.u.) |
| CGGGGAAATTTAACTTAACTCGTGATCAAGAGTTATATAGCGGAGTCACCTAGTGCAG | 3530 fluorescence intensity (a.u.) |
| CGATCTAATTGTGAATCCTCTACCCTAGAGGACCTCCTATCGGAGTCACCTAGTGCAG | 4020 fluorescence intensity (a.u.) |
